Laboratory results taken from patent US20150197550A1 (UNIVERSITY OF ULSTER, priority 2012, published 2015).
Not every detail of the peptide structures is certain; ends, links or a residue may be inferred. Some compounds share one wording; it may come from a single statement. Numbered stars: 1 amine (or outer) side, 2 acyl side, 3 side chain; on linkers, the order of the positions; unused ones are H or OH. Square brackets hold non-standard residues; d marks the D form. Side chains are listed from the residue outwards. Peptide text beside a SMILES is read from it. * marks the point of attachment. γGlu = O=C(O)[C@H](CCC(=O)[*:2])N[*:1]; Palmitoyl = CCCCCCCCCCCCCCCC(=O)*; Abu = CC[C@H](N)C(=O)O; Aib = CC(C)(N)C(=O)O

Experiments:
Swiss NIH mice = test: Acute glucose tolerance test in Swiss NIH mice; type: in vivo, mouse; details: for blood glucose compared to glucose alone: 25 nmol/kg body weight i.p. with glucose 18 mmol/kg
[1] = system: high-fat fed NIH Swiss mice; test: Chronic 28 day study in high-fat fed NIH Swiss mice (dietary induced obesity-diabetes); type: in vivo, mouse
BRIN-BD11 cells = test: Acute insulin secretion from BRIN-BD11 clonal β cells, insulin by radioimmunoassay; type: cell-based, rat; details: 5.6 mM glucose, 20 min, 10^-12 to 10^-6 M; compared with 5.6 mM glucose alone

SMILES	blood glucose compared to glucose alone (Swiss NIH mice)	insulin secretion (BRIN-BD11 cells)	other results
CC[C@H](NC(=O)[C@@H](N)Cc1c[nH]cn1)C(=O)N[C@@H](CCC(=O)O)C(=O)NCC(=O)N[C@H](C(=O)N[C@@H](Cc1ccccc1)C(=O)N[C@H](C(=O)N[C@@H](CO)C(=O)N[C@@H](CC(=O)O)C(=O)N[C@@H](Cc1ccc(O)cc1)C(=O)N[C@@H](CO)C(=O)N[C@@H](CCCCN)C(=O)N[C@@H](Cc1ccc(O)cc1)C(=O)N[C@@H](CCSC)C(=O)N[C@@H](CC(=O)O)C(=O)N[C@@H](CC(N)=O)C(=O)N[C@@H](CCCNC(=N)N)C(=O)N[C@@H](CCCNC(=N)N)C(=O)N[C@@H](C)C(=O)N[C@@H](CCCCN)C(=O)N[C@@H](CC(=O)O)C(=O)N[C@@H](Cc1ccccc1)C(=O)N[C@H](C(=O)N[C@@H](CCC(N)=O)C(=O)N[C@@H](Cc1c[nH]c2ccccc12)C(=O)N[C@@H](CC(C)C)C(=O)N[C@@H](CCSC)C(=O)N[C@@H](CC(N)=O)C(=O)N[C@H](C(=O)O)[C@@H](C)O)C(C)C)[C@@H](C)O)[C@@H](C)O [(Abu^2) dogfish glucagon] (H-H[Abu]EGTFTSDYSKYMDNRRAKDFVQWLMNT-OH; N-terminus and C-terminus assumed)	significantly reduced blood glucose	–	–
CSCC[C@H](NC(=O)[C@H](Cc1ccc(O)cc1)NC(=O)[C@H](CCCCN)NC(=O)[C@H](CO)NC(=O)[C@H](Cc1ccc(O)cc1)NC(=O)[C@H](CC(=O)O)NC(=O)[C@H](CO)NC(=O)[C@@H](NC(=O)[C@H](Cc1ccccc1)NC(=O)[C@@H](NC(=O)CNC(=O)[C@H](CCC(=O)O)NC(=O)C(C)(C)NC(=O)[C@@H](N)Cc1c[nH]cn1)[C@@H](C)O)[C@@H](C)O)C(=O)N[C@@H](CC(=O)O)C(=O)N[C@@H](CC(N)=O)C(=O)N[C@@H](CCCNC(=N)N)C(=O)N[C@@H](CCCNC(=N)N)C(=O)N[C@@H](C)C(=O)N[C@@H](CCCCN)C(=O)N[C@@H](CC(=O)O)C(=O)N[C@@H](Cc1ccccc1)C(=O)N[C@H](C(=O)N[C@@H](CCC(N)=O)C(=O)N[C@@H](Cc1c[nH]c2ccccc12)C(=O)N[C@@H](CC(C)C)C(=O)N[C@@H](CCSC)C(=O)N[C@@H](CC(N)=O)C(=O)N[C@H](C(=O)O)[C@@H](C)O)C(C)C [(Aib^2) dogfish glucagon] (H-H[Aib]EGTFTSDYSKYMDNRRAKDFVQWLMNT-OH; N-terminus and C-terminus assumed)	significantly reduced blood glucose	–	plasma glucose at later time points compared to glucose alone or glucose with human glucagon (Swiss NIH mice; 25 nmol/kg i.p. with glucose 18 mmol/kg): reduce plasma glucose levels at later time points
CC[C@H](C)[C@H](NC(=O)[C@H](CO)NC(=O)[C@H](Cc1ccc(O)cc1)NC(=O)[C@H](CC(=O)O)NC(=O)[C@H](CO)NC(=O)[C@@H](NC(=O)[C@H](Cc1ccccc1)NC(=O)[C@@H](NC(=O)CNC(=O)[C@H](CCC(=O)O)NC(=O)[C@@H](C)NC(=O)[C@@H](N)Cc1c[nH]cn1)[C@@H](C)O)[C@@H](C)O)C(=O)N[C@@H](Cc1ccc(O)cc1)C(=O)N[C@@H](CCSC)C(=O)N[C@@H](CC(=O)O)C(=O)N[C@@H](CC(N)=O)C(=O)N[C@@H](CCCNC(=N)N)C(=O)N[C@@H](CCCNC(=N)N)C(=O)N[C@@H](C)C(=O)N[C@@H](CCCCN)C(=O)N[C@@H](CC(=O)O)C(=O)N[C@@H](Cc1ccccc1)C(=O)N[C@H](C(=O)N[C@@H](CCC(N)=O)C(=O)N[C@@H](Cc1c[nH]c2ccccc12)C(=O)N[C@@H](CC(C)C)C(=O)N[C@@H](CCSC)C(=O)N[C@@H](CC(N)=O)C(=O)N[C@H](C(=O)O)[C@@H](C)O)C(C)C [(D-A^2 I^12) dogfish glucagon, (D-A^2I^12) dogfish glucagon] (H-H[dA]EGTFTSDYSIYMDNRRAKDFVQWLMNT-OH; N-terminus and C-terminus assumed)	significantly reduced blood glucose	–	–
CCCCCCCCCCCCCCCC(=O)N[C@@H](CCC(=O)NCCCC[C@H](NC(=O)[C@@H](NC(=O)[C@H](CC(N)=O)NC(=O)[C@H](CCSC)NC(=O)[C@H](CC(C)C)NC(=O)[C@H](Cc1c[nH]c2ccccc12)NC(=O)[C@H](CCC(N)=O)NC(=O)[C@@H](NC(=O)[C@H](Cc1ccccc1)NC(=O)[C@H](CC(=O)O)NC(=O)[C@H](CCCCN)NC(=O)[C@H](C)NC(=O)[C@H](CCCNC(=N)N)NC(=O)[C@H](CCCNC(=N)N)NC(=O)[C@H](CC(N)=O)NC(=O)[C@H](CC(=O)O)NC(=O)[C@H](CCSC)NC(=O)[C@H](Cc1ccc(O)cc1)NC(=O)[C@H](CCCCN)NC(=O)[C@H](CO)NC(=O)[C@H](Cc1ccc(O)cc1)NC(=O)[C@H](CC(=O)O)NC(=O)[C@H](CO)NC(=O)[C@@H](NC(=O)[C@H](Cc1ccccc1)NC(=O)[C@@H](NC(=O)CNC(=O)[C@H](CCC(=O)O)NC(=O)[C@@H](C)NC(=O)[C@@H](N)Cc1c[nH]cn1)[C@@H](C)O)[C@@H](C)O)C(C)C)[C@@H](C)O)C(=O)O)C(=O)O [(D-A^2) dogfish glucagon Lys^30-γ-Glutamyl-PAL] (H-H[dA]EGTFTSDYSKYMDNRRAKDFVQWLMNTK([γGlu-Palmitoyl])-OH; N-terminus and C-terminus assumed)	–	–	glycaemic response at 15, 30 and 60 min post i.p. glucose load ([1]; after 28 days treatment, compared to high-fat fed controls): significantly improved; non-fasted blood glucose ([1]; twice daily i.p. 25 nmol/kg bw, 28 days): progressive decline; glucose levels immediately following injection, compared among fatty-acid derivatives (Swiss NIH mice; 25 nmol/kg body weight i.p.): glucose levels decreased more significantly
CSCC[C@H](NC(=O)[C@H](Cc1ccc(O)cc1)NC(=O)[C@H](CCCCN)NC(=O)[C@H](CO)NC(=O)[C@H](Cc1ccc(O)cc1)NC(=O)[C@H](CC(=O)O)NC(=O)[C@H](CO)NC(=O)[C@@H](NC(=O)[C@H](Cc1ccccc1)NC(=O)[C@@H](NC(=O)CNC(=O)[C@H](CCC(=O)O)NC(=O)[C@@H](C)NC(=O)[C@@H](N)Cc1ccc(O)cc1)[C@@H](C)O)[C@@H](C)O)C(=O)N[C@@H](CC(=O)O)C(=O)N[C@@H](CC(N)=O)C(=O)N[C@@H](CCCNC(=N)N)C(=O)N[C@@H](CCCNC(=N)N)C(=O)N[C@@H](C)C(=O)N[C@@H](CCCCN)C(=O)N[C@@H](CC(=O)O)C(=O)N[C@@H](Cc1ccccc1)C(=O)N[C@H](C(=O)N[C@@H](CCC(N)=O)C(=O)N[C@@H](Cc1c[nH]c2ccccc12)C(=O)N[C@@H](CC(C)C)C(=O)N[C@@H](CCSC)C(=O)N[C@@H](CC(N)=O)C(=O)N[C@H](C(=O)O)[C@@H](C)O)C(C)C [(Tyr^1)(D-Ala^2) dogfish glucagon, Y^1(D-A^2) dogfish glucagon] (H-Y[dA]EGTFTSDYSKYMDNRRAKDFVQWLMNT-OH; N-terminus and C-terminus assumed)	not able to reduce blood glucose	significantly stimulated insulin secretion	–
CSCC[C@H](NC(=O)[C@H](CC(C)C)NC(=O)[C@H](Cc1c[nH]c2ccccc12)NC(=O)[C@H](CCC(N)=O)NC(=O)[C@@H](NC(=O)[C@H](Cc1ccccc1)NC(=O)[C@H](CC(=O)O)NC(=O)[C@H](CCC(N)=O)NC(=O)[C@H](C)NC(=O)[C@H](CCCNC(=N)N)NC(=O)[C@H](CCCNC(=N)N)NC(=O)[C@H](CO)NC(=O)[C@H](CC(=O)O)NC(=O)[C@H](CC(C)C)NC(=O)[C@H](Cc1ccc(O)cc1)NC(=O)[C@H](CCCCN)NC(=O)[C@H](CO)NC(=O)[C@H](Cc1ccc(O)cc1)NC(=O)[C@H](CC(=O)O)NC(=O)[C@H](CO)NC(=O)[C@@H](NC(=O)[C@H](Cc1ccccc1)NC(=O)[C@@H](NC(=O)[C@@H]1CCCN1C(=O)[C@H](CCC(N)=O)NC(=O)[C@@H](N)CO)[C@@H](C)O)[C@@H](C)O)C(C)C)C(=O)N[C@@H](CC(N)=O)C(=O)N[C@H](C(=O)O)[C@@H](C)O [(desHis^1)(Pro^4) glucagon, reference compound] (H-SQPTFTSDYSKYLDSRRAQDFVQWLMNT-OH; N-terminus and C-terminus assumed)	–	no effect	–
